Some of the results follow. Values come from read counts of a selection and are noisy. Each score is taken over the longer molecules that contain the sequence shown.
Legend:
Experiment in all cases: 6-mer SELEX enrichment z-score vs GST control; IMP3 is the RNA-binding protein IGF2BP3; higher = more enriched by binding
IMP3 KH1-4 = details: construct: KH1-4 (164-579); SELEX round: R4
Procedure: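 SELEX-seq with GST-tagged IMP3 KH1-4 (Pro164-Lys579) and an N40 RNA pool, round 4. 6-mer z-score of sequence-tag enrichment normalised to the corresponding GST SELEX round; RNA k-mers written as DNA (T for U).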

IMP3 RRM1-2 = details: construct: RRM1-2 (1-163); SELEX round: R2
Procedure: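 SELEX-seq with GST-tagged IMP3 RRM1-2 (Met1-Asn163) and an N40 RNA pool, round 2. 6-mer enrichment z-score normalised to GST SELEX. RNA written as DNA (T = U).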

IMP3 KH1-2 = details: construct: KH1-2 (164-376); SELEX round: R4
Procedure: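 SELEX-seq with GST-tagged IMP3 KH1-2 (Pro164-Phe376) and an N40 RNA pool, round 4 (stringent 300/600 mM KCl washes). 6-mer z-score of sequence-tag enrichment normalised to the corresponding GST SELEX round; RNA k-mers written as DNA (T for U).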

IMP3 KH3-4 = details: construct: KH3-4 (377-579); SELEX round: R4
Procedure: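 SELEX-seq with GST-tagged IMP3 KH3-4 (Pro377-Lys579) and an N40 RNA pool, round 4. 6-mer z-score of sequence-tag enrichment normalised to the corresponding GST SELEX round; RNA k-mers written as DNA (T for U).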

IMP3 full-length = IMP3 full-length (UniProt O00425); details: construct: FL IMP3 (1-579); SELEX round: R4
Procedure: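 SELEX-seq with GST-tagged full-length IMP3 and an N40 RNA pool, round 4. Each 6-mer is scored as an enrichment z-score of sequence tags containing it, normalised to the matching GST SELEX round. RNA written as DNA (T = U).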

Sequence of UniProt O00425 (O00425 whole entry): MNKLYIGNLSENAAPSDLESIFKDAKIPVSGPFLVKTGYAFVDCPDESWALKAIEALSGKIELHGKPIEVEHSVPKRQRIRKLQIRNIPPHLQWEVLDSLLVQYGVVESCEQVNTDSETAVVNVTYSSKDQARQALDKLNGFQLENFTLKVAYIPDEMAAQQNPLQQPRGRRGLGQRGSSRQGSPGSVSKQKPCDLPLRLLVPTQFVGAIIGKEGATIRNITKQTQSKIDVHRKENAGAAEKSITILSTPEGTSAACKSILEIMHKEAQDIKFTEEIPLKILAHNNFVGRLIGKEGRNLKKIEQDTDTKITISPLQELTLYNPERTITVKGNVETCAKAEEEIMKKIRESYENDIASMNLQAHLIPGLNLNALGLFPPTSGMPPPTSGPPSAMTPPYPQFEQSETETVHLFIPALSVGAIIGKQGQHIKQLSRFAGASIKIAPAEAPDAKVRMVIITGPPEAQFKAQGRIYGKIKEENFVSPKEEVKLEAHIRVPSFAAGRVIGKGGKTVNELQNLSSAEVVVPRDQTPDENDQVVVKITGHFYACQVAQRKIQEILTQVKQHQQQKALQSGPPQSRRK
Sequence of IMP3 RRM1-2 (chain, as listed by the source): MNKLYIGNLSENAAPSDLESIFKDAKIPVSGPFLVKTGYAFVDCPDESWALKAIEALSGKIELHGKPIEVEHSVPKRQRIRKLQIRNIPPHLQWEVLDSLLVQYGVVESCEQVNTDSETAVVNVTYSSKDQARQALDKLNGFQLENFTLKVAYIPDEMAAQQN
Sequence of IMP3 KH1-4 (chain, as listed by the source): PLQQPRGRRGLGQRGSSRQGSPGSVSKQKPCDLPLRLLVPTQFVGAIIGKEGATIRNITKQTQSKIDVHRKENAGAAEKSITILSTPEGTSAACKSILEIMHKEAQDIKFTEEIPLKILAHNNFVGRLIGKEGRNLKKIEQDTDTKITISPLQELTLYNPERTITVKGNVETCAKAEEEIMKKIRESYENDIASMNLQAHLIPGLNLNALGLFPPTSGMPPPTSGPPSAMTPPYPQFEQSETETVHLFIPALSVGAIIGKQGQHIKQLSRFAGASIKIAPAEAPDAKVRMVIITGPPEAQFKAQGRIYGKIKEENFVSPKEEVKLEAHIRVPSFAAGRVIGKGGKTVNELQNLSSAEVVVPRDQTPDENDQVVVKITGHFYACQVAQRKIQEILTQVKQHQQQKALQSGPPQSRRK
Sequence of IMP3 KH1-2 (chain, as listed by the source): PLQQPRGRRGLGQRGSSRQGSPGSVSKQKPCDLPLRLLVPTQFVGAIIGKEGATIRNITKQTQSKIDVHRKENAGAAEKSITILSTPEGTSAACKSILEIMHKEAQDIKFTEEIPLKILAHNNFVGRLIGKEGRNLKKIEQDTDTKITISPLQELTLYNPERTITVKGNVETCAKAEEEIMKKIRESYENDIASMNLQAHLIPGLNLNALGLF
Sequence of IMP3 KH3-4 (chain, as listed by the source): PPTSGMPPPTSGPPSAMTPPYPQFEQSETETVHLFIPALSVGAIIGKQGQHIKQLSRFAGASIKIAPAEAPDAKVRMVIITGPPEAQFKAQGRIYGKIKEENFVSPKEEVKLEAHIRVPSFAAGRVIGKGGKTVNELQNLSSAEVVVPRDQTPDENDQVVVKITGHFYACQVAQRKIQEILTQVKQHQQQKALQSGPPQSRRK

Sequence | 6-mer SELEX enrichment z-score (IMP3 KH1-4) | 6-mer SELEX enrichment z-score (IMP3 RRM1-2) | 6-mer SELEX enrichment z-score (IMP3 KH1-2) | 6-mer SELEX enrichment z-score (IMP3 KH3-4) | 6-mer SELEX enrichment z-score (IMP3 full-length)
GTTCTC | -0.198 | 0.406 | -0.128 | -0.116 | 
ATTCGA | -0.703 | -0.235 | -0.611 | -0.483 | 
TAACAC | 1.41 | 0.793 | 1.84 | 1.51 | 
TCGAGT | -1.01 | 0.335 | -0.843 | -0.721 | 
CTCGAC | -1.85 | 0.03 |  | -1.67 | 
GTAACC | -1.3 | -0.651 |  | -1.46 | 
CACTCT | 0.119 |  | 0.171 | -0.166 | 0.128
AGTGTT | -0.353 |  |  |  | -0.3
CAACAC | 0.608 |  | 1.1 |  | 2.18
ATATTA | 2.11 |  | 1.99 |  | 0.54
TCATCA | 1.46 | 3.08 |  | 0.91 | 
ATTATG | 1.39 |  | 1 |  | 0.253
TTGCAC | 0.841 |  | 0.603 |  | 0.396
ATGAAA | 1.41 | -1.7 |  | 2.77 | 
TTCATA | 1.61 | 1.5 |  | 1.62 | 
CGAGTA | -1.26 | -0.12 |  | -0.98 | 
CGAAAA | -1.93 |  | -1.76 |  | -2.52
TCGCGT | -0.975 | 0.34 |  | -0.781 | 
TGGTAT | -0.157 |  | -0.078 |  | 0.015
ATGACA | 1.92 |  | 1.56 |  | 0.796
AGGGAT | 0.678 | -0.053 |  | 0.812 | 
TCTCGA | -0.761 |  | -0.58 |  | -0.074

Sequence | 6-mer SELEX enrichment z-score (IMP3 KH1-4) | 6-mer SELEX enrichment z-score (IMP3 RRM1-2) | 6-mer SELEX enrichment z-score (IMP3 KH1-2) | 6-mer SELEX enrichment z-score (IMP3 KH3-4) | 6-mer SELEX enrichment z-score (IMP3 full-length)
TCACCC | -0.863 |  | -0.932 |  | -0.872
TGCTTA | 0.241 |  | 0.284 |  | -0.106
CAATGC | 0.026 | 0.206 |  | -0.345 | 
TCGCCA | 0.661 | 0.124 |  | 0.094 | 
AACGGG | -0.939 | -0.854 |  | -0.445 | 
TTTGCG | -0.397 | 0.235 |  | -0.158 | 
TCATGG | 0.292 |  | 0.24 |  | 0.847
CAACCC | -2.01 |  | -2.01 |  | -1.81
TTTGCT | 0.431 | 0.364 |  | 0.485 | 
CCAATA | 0.313 |  |  |  | -0.382
TACTGT | 0.552 | 0.009 |  | 0.414 | 
AAATTT | 0.986 |  | 1.04 | 1.93 | -0.355
AGCGTT | -2.04 |  | -1.83 |  | -0.909
CAACCT | -0.899 | -0.017 |  | -1.4 | 
GTCAAG | -0.422 | -0.03 |  | -0.314 | 
AGCTAC | -0.474 |  | -0.441 |  | -0.113
TTAGTG | 0.186 | 0.288 |  | 0.326 | 
TCTTGA | -0.792 | 0.235 |  | -0.558 | 
ATCGGT | 0.208 | 0.356 |  | 0.169 | 
CGCCAG | -0.023 |  | 0.05 |  | 0.482
AATGAA | 1.83 |  | 1.16 |  | -1.02
CCATTA | 1.07 |  | 0.947 | 0.888 | 0.46

Sequence | 6-mer SELEX enrichment z-score (IMP3 KH1-4) | 6-mer SELEX enrichment z-score (IMP3 RRM1-2) | 6-mer SELEX enrichment z-score (IMP3 KH1-2) | 6-mer SELEX enrichment z-score (IMP3 KH3-4) | 6-mer SELEX enrichment z-score (IMP3 full-length)
CAGATA | 1.09 |  | 1.14 | 1.24 | 0.616
TTCCAG | 0.502 |  | 0.258 | 0.177 | -0.038
GCTATT | 0.32 |  | 0.346 | 0.498 | 0.093
AATGGG | 0.398 |  | 0.405 | 0.888 | -0.077
GCGAAA | -1.4 |  | -1.34 | -1.03 | -1.04
AGGGTA | -0.209 |  | -0.084 | 0.069 | 0.009
TCTGCC | -0.202 |  | -0.108 | -0.516 | -0.178
TCCTGC | -0.464 |  | -0.473 | -0.811 | -0.466
CAGCAC | 0.946 |  | 0.791 | -0.049 | 2.01
TCAGTA | 0.276 |  | 0.28 | 0.259 | 0.709
GTATGA | 0.166 |  | -0.075 | 0.393 | -0.363
GAAAAA | -0.948 |  | -0.681 | 0.948 | -3.07
TATGTT | 0.495 |  | 0.356 | 0.632 | 0.038
ACCTTT | 0.013 |  | -0.026 | -0.097 | -0.497
ACCGGC | 0.681 |  | 0.353 | 0.148 | 1.39
CGAGAG | -1.3 |  | -1.14 | -1.1 | -0.676
ATCTGA | -0.196 |  | -0.141 | -0.233 | -0.145
AGCTAG | -1.01 |  | -0.894 | -0.793 | -0.599
CCGAAG | -1.49 |  | -1.27 | -1.44 | -1.08
TGTCCG | -0.059 |  | -0.155 | -0.299 | 0.12
